According to US8067379B2, “Sulfur compounds as inhibitors of hepatitis C virus NS3 serine protease” (Schering Corporation, priority 2004, dated 2011):

What follows are compounds tested against Recombinant heterodimeric HCV NS3/NS4A protease (strain 1a) (Hepatitis C virus genotype 1a, UniProt P27958) (assay: Spectrophotometric assay for HCV serine protease inhibitory activity (chromogenic ester substrates)). Conditions: Table 3A; class symbols; read-out: Ki* Range.
Type: biochemical
Work on `CCNC(=O)C(=O)C(CCC1CC1)NC(=O)[C@@H]1[C@@H]2[C@H](CN1C(=O)[C@@H](NC(=O)NC1(CS(=O)(=O)C(C)(C)C)CCCCC1)C1(C)CCCCC1)C2(C)C` (stereo partly drawn) [Compound 479] yielded a Ki of less than 75 nM.
Work on `CC(C)(C)[C@H](NC(=O)NC1(CS(=O)(=O)C(C)(C)C)CCCCC1)C(=O)N1C[C@H]2[C@@H]([C@H]1C(=O)NC(CCCCF)C(=O)C(=O)NC1CC1)C2(C)C` (stereo partly drawn) [Compound 480] yielded a Ki of less than 75 nM.
For `CCC(C)(C)S(=O)(=O)CC1(NC(=O)N[C@H](C(=O)N2C[C@H]3[C@@H]([C@H]2C(=O)NC(CC2CC2)C(=O)C(=O)NC2CC2)C3(C)C)C(C)(C)C)CCCCC1` (stereo partly drawn) [Compound 481], the Ki was less than 75 nM.
In the case of `CC(C)(C)[C@H](NC(=O)NC1(CS(=O)(=O)c2ccccc2)CCCCC1)C(=O)N1C[C@H]2[C@@H]([C@H]1C(=O)NC(CC1CC1)C(=O)C(=O)NC1CC1)C2(C)C` (stereo partly drawn) [Compound 482], the Ki is reported as 75 to 250 nM.
With `CC1(C)[C@@H]2[C@@H](C(=O)NC(CC3CCC3)C(=O)C(=O)NC3CC3)N(C(=O)[C@@H](NC(=O)NC3(CS(=O)(=O)C(C)(C)C)CCCCC3)C3Cc4ccccc4C3)C[C@@H]21` (stereo partly drawn) [Compound 483] the Ki was 75 to 250 nM.
Compound `CCCCC(NC(=O)[C@@H]1[C@@H]2[C@H](CN1C(=O)[C@@H](NC(=O)NC1(CS(=O)(=O)C(C)(C)C)CCCCC1)C(C)(C)C)C2(C)C)C(=O)C(=O)NC1CC1` (stereo partly drawn) [Compound 484] has a Ki of less than 75 nM.
`CCC(C)(C)S(=O)(=O)CC1(NC(=O)N[C@H](C(=O)N2C[C@H]3[C@@H]([C@H]2C(=O)NC(CC2CC2)C(=O)C(=O)NC2CC2)[C@]3(C)CF)C2(C)CCCCC2)CCCCC1` (stereo partly drawn) [Compound 485] showed a Ki of 75 to 250 nM.
With `C=CCNC(=O)C(=O)C(CCCCF)NC(=O)[C@@H]1[C@@H]2[C@H](CN1C(=O)[C@@H](NC(=O)NC1(CS(=O)(=O)C(C)(C)C)CCCCC1)C(C)(C)C)C2(C)C` (stereo partly drawn) [Compound 486] the Ki was less than 75 nM.
For `C=CCNC(=O)C(=O)C(CCCC(F)F)NC(=O)[C@@H]1[C@@H]2[C@H](CN1C(=O)[C@@H](NC(=O)NC1(CS(=O)(=O)C(C)(C)C)CCCCC1)C(C)(C)C)C2(C)C` (stereo partly drawn) [Compound 487], the Ki was less than 75 nM.
`CCCC(NC(=O)[C@@H]1[C@@H]2[C@H](CN1C(=O)[C@@H](NC(=O)NC1(CS(=O)(=O)C(C)(C)C)CCCCC1)C1(C)CCCCC1)C2(C)C)C(=O)C(=O)NCCCOC(C)C` (stereo partly drawn) [Compound 488] showed a Ki of 75 to 250 nM.
Compound `CCCC(NC(=O)[C@@H]1[C@@H]2[C@H](CN1C(=O)[C@@H](NC(=O)NC1(CS(=O)(=O)C(C)(C)C)CCCCC1)C1(C)CCCCC1)C2(C)C)C(=O)C(=O)NC(CC)CC` (stereo partly drawn) [Compound 489] has a Ki of 75 to 250 nM.
With `CC(C)(C)[C@H](NC(=O)NC1(CS(=O)(=O)C(C)(C)C)CCCCC1)C(=O)N1C[C@H]2[C@@H]([C@H]1C(=O)NC(CCCC(F)F)C(=O)C(=O)NC1CC1)C2(C)C` (stereo partly drawn) [Compound 490] the Ki was less than 75 nM.
Work on `CC1([C@H](NC(=O)NC2(CS(C)(=O)=O)CCCCC2)C(=O)N2C[C@H]3[C@@H]([C@H]2C(=O)NC(CC2CC2)C(=O)C(=O)NC2CC2)C3(C)C)CCCCC1` (stereo partly drawn) [Compound 491] yielded a Ki of less than 75 nM.
`CC(C)(C)[C@H](NC(=O)NC1(CS(C)(=O)=O)CCCCC1)C(=O)N1C[C@H]2[C@@H]([C@H]1C(=O)NC(CC1CC1)C(=O)C(=O)NC1CC1)C2(C)C` (stereo partly drawn) [Compound 492] gave a Ki of less than 75 nM.
For `CCCC(NC(=O)[C@@H]1[C@@H]2[C@H](CN1C(=O)[C@@H](NC(=O)NC1(CS(=O)(=O)C(C)(C)C)CCCCC1)C1(C)CCCCC1)C2(C)C)C(=O)C(=O)NCc1cccs1` (stereo partly drawn) [Compound 493], the Ki was less than 75 nM.
`C=CCNC(=O)C(=O)C(CC1CC1)NC(=O)[C@@H]1[C@@H]2[C@H](CN1C(=O)[C@@H](NC(=O)NC1(CS(C)(=O)=O)CCCCC1)C1(C)CCCCC1)C2(C)C` (stereo partly drawn) [Compound 494] gave a Ki of less than 75 nM.
`C#CCCC(NC(=O)[C@@H]1[C@@H]2[C@H](CN1C(=O)[C@@H](NC(=O)NC1(CS(=O)(=O)C(C)(C)C)CCCCC1)C(C)(C)C)C2(C)C)C(=O)C(=O)NCCC1CC1` (stereo partly drawn) [Compound 495] gave a Ki of less than 75 nM.
`CCCC(NC(=O)[C@@H]1[C@@H]2[C@H](CN1C(=O)[C@@H](NC(=O)NC1(CS(=O)(=O)C(C)(C)C)CCCCC1)C(C)(C)C)C2(C)C)C(=O)C(=O)NCCOC` (stereo partly drawn) [Compound 496] was tested, and the Ki was less than 75 nM.
`CC1([C@H](NC(=O)NC2(CS(=O)(=O)C(C)(C)C)CCCCC2)C(=O)N2C[C@H]3[C@@H]([C@H]2C(=O)NC(CCC2CCC2)C(=O)C(=O)NC2CC2)C3(C)C)CCCCC1` (stereo partly drawn) [Compound 497] was tested, and the Ki was less than 75 nM.
Compound `CCCC(NC(=O)[C@@H]1[C@@H]2[C@H](CN1C(=O)[C@@H](NC(=O)NC1(CS(=O)(=O)C(C)(C)C)CCCCC1)C(C)(C)C)C2(C)C)C(=O)C(=O)NC1CC1` (stereo partly drawn) [Compound 498] has a Ki of less than 75 nM.
`CC(C)(C)[C@H](NC(=O)NC1(CS(=O)(=O)C(C)(C)C)CCCCC1)C(=O)N1C[C@H]2[C@@H]([C@H]1C(=O)NC(CCC1CCC1)C(=O)C(=O)NC1CC1)C2(C)C` (stereo partly drawn) [Compound 499] showed a Ki of less than 75 nM.
`CC(C)(C)[C@H](NC(=O)NC1(CS(=O)(=O)C(C)(C)C)CCCCC1)C(=O)N1C[C@H]2[C@@H]([C@H]1C(=O)NC(CC1CC1)C(=O)C(=O)NC1CC1)C2(C)C` (stereo partly drawn) [Compound 500] was tested, and the Ki was less than 75 nM.
For `CCCNC(=O)C(=O)C(CCC1CC1)NC(=O)[C@@H]1[C@@H]2[C@H](CN1C(=O)[C@@H](NC(=O)NC1(CS(=O)(=O)C(C)(C)C)CCCCC1)C1(C)CCCCC1)C2(C)C` (stereo partly drawn) [Compound 501], the Ki was less than 75 nM.
For `CCCNC(=O)C(=O)C(CCC1CC1)NC(=O)[C@@H]1[C@@H]2[C@H](CN1C(=O)[C@@H](NC(=O)NC1(CS(=O)(=O)C(C)(C)C)CCCCC1)C(C)(C)C)C2(C)C` (stereo partly drawn) [Compound 502], the Ki was less than 75 nM.
`C=CCNC(=O)C(=O)C(CCC(F)(F)F)NC(=O)[C@@H]1[C@@H]2[C@H](CN1C(=O)[C@@H](NC(=O)NC1(CS(=O)(=O)C(C)(C)C)CCCCC1)C(C)(C)C)C2(C)C` (stereo partly drawn) [Compound 503] showed a Ki of less than 75 nM.
For `C=CCNC(=O)C(=O)C(CCC(F)(F)F)NC(=O)[C@@H]1[C@@H]2[C@H](CN1C(=O)[C@@H](NC(=O)NC1(CS(=O)(=O)C(C)(C)C)CCCCC1)C1(C)CCCCC1)C2(C)C` (stereo partly drawn) [Compound 504], the Ki was less than 75 nM.
Compound `CCC(C)(C)S(=O)(=O)CC1(NC(=O)N[C@H](C(=O)N2C[C@H]3[C@@H]([C@H]2C(=O)NC(CCC2CC2)C(=O)C(=O)NC2CC2)C3(C)C)C2(C)CCCCC2)CCCCC1` (stereo partly drawn) [Compound 505] has a Ki of less than 75 nM.
`CCC(C)(C)S(=O)(=O)CC1(NC(=O)N[C@H](C(=O)N2C[C@H]3[C@@H]([C@H]2C(=O)NC(CCC2CC2)C(=O)C(=O)NC2CC2)C3(C)C)C(C)(C)C)CCCCC1` (stereo partly drawn) [Compound 506] showed a Ki of less than 75 nM.
`CCCC(NC(=O)[C@@H]1[C@@H]2[C@H](CN1C(=O)[C@@H](NC(=O)NC1(CS(=O)(=O)C(C)(C)C)CCCCC1)C1(C)CCCCC1)C2(C)C)C(=O)C(=O)NC1CCOCC1` (stereo partly drawn) [Compound 507] gave a Ki greater than 250 nM.
`CCCC(NC(=O)[C@@H]1[C@@H]2[C@H](CN1C(=O)[C@@H](NC(=O)NC1(CS(=O)(=O)C(C)(C)C)CCCCC1)C1(C)CCCCC1)C2(C)C)C(=O)C(=O)NC(C)CC` (stereo partly drawn) [Compound 508] showed a Ki of 75 to 250 nM.
For `CCCC(NC(=O)[C@@H]1[C@@H]2[C@H](CN1C(=O)[C@@H](NC(=O)NC1(CS(=O)(=O)C(C)(C)C)CCCCC1)C1(C)CCCCC1)C2(C)C)C(=O)C(=O)NC(C)C` (stereo partly drawn) [Compound 509], the Ki was less than 75 nM.
In the case of `C=CCNC(=O)C(=O)C(CCC)NC(=O)[C@@H]1[C@@H]2[C@H](CN1C(=O)[C@@H](NC(=O)NC1(CS(=O)(=O)CC(F)(F)F)CCCCC1)C(C)(C)C)C2(C)C` (stereo partly drawn) [Compound 510], the Ki is reported as less than 75 nM.
Work on `C=CCNC(=O)C(=O)C(CCCC)NC(=O)[C@@H]1[C@@H]2[C@H](CN1C(=O)[C@@H](NC(=O)NC1(CS(=O)(=O)CC(F)(F)F)CCCCC1)C(C)(C)C)C2(C)C` (stereo partly drawn) [Compound 511] yielded a Ki of less than 75 nM.
With `C#CCCC(NC(=O)[C@@H]1[C@@H]2[C@H](CN1C(=O)[C@@H](NC(=O)NC1(CS(=O)(=O)C(C)(C)C)CCCCC1)C(C)(C)C)C2(C)C)C(=O)C(=O)NC1CCCC1` (stereo partly drawn) [Compound 512] the Ki was less than 75 nM.
For `CCNC(=O)C(=O)C(CC1CC1)NC(=O)[C@@H]1[C@@H]2[C@H](CN1C(=O)[C@@H](NC(=O)NC1(CS(=O)(=O)C(C)(C)C)CCCCC1)C1(C)CCCCC1)C2(C)C` (stereo partly drawn) [Compound 513], the Ki was less than 75 nM.
For `CC(C)(C)[C@H](NC(=O)NC1(CS(=O)(=O)C(C)(C)C)CCCCC1)C(=O)N1C[C@H]2[C@@H]([C@H]1C(=O)NC(CCC(F)(F)F)C(=O)C(=O)NC1CC1)C2(C)C` (stereo partly drawn) [Compound 514], the Ki was less than 75 nM.
In the case of `CC1([C@H](NC(=O)NC2(CS(=O)(=O)C(C)(C)C)CCCCC2)C(=O)N2C[C@H]3[C@@H]([C@H]2C(=O)NC(CCC(F)(F)F)C(=O)C(=O)NC2CC2)C3(C)C)CCCCC1` (stereo partly drawn) [Compound 515], the Ki is reported as less than 75 nM.
Compound `C=CCNC(=O)C(=O)C(CC1CC1)NC(=O)[C@@H]1[C@@H]2[C@H](CN1C(=O)[C@@H](NC(=O)NC1(CS(=O)(=O)C(C)(C)c3ccccc3)CCCCC1)C1(C)CCCCC1)C2(C)C` (stereo partly drawn) [Compound 516] has a Ki of less than 75 nM.
`CC1([C@H](NC(=O)NC2(CS(=O)(=O)C(C)(C)c3ccccc3)CCCCC2)C(=O)N2C[C@H]3[C@@H]([C@H]2C(=O)NC(CC2CC2)C(=O)C(=O)NC2CC2)C3(C)C)CCCCC1` (stereo partly drawn) [Compound 517] was tested, and the Ki was 75 to 250 nM.
`CCCC(NC(=O)[C@@H]1[C@@H]2[C@H](CN1C(=O)[C@@H](NC(=O)NC1(CS(=O)(=O)C(C)(C)c3ccccc3)CCCCC1)C1(C)CCCCC1)C2(C)C)C(=O)C(=O)NC1CC1` (stereo partly drawn) [Compound 518] was tested, and the Ki was less than 75 nM.
In the case of `CC(C)(C)[C@H](NC(=O)NC1(CS(=O)(=O)C(C)(C)C)CCCCC1)C(=O)N1C[C@H]2[C@@H]([C@H]1C(=O)NC(CC1CCC1)C(=O)C(=O)NC1CC1)C2(C)C` (stereo partly drawn) [Compound 519], the Ki is reported as less than 75 nM.
`CC1(C)[C@@H]2[C@@H](C(=O)NC(CC3CCC3)C(=O)C(=O)NC3CC3)N(C(=O)[C@@H](NC(=O)NC3(CS(=O)(=O)C(C)(C)C)CCCCC3)C3CCCCC3)C[C@@H]21` (stereo partly drawn) [Compound 520] gave a Ki of 75 to 250 nM.
For `CCCCC(NC(=O)[C@@H]1[C@@H]2[C@H](CN1C(=O)[C@@H](NC(=O)NC1(CS(=O)(=O)C(C)(C)CC)CCCCC1)C1(C)CCCCC1)C2(C)C)C(=O)C(=O)NC1CC1` (stereo partly drawn) [Compound 521], the Ki was less than 75 nM.
`CCCC(NC(=O)[C@@H]1[C@@H]2[C@H](CN1C(=O)[C@@H](NC(=O)NC1(CS(=O)(=O)C(C)(C)CC)CCCCC1)C1(C)CCCCC1)C2(C)C)C(=O)C(=O)NC1CC1` (stereo partly drawn) [Compound 522] showed a Ki of less than 75 nM.
Compound `CC(C)CCS(=O)(=O)CC1(NC(=O)N[C@H](C(=O)N2C[C@H]3[C@@H]([C@H]2C(=O)NC(CC2CC2)C(=O)C(=O)NC2CC2)C3(C)C)C2(C)CCCCC2)CCCCC1` (stereo partly drawn) [Compound 523] has a Ki of less than 75 nM.
